From ChEMBL document CHEMBL4888484, “Replenishing the malaria drug discovery pipeline: Screening and hit evaluation of the MMV Hit Generation Library 1 (HGL1) against asexual blood stage Plasmodium falciparum ,using a nano luciferase reporter read-out” (2022)
About 540 (0.36%) of roughly 150,000 compounds showed an effect of 50% or more. The list shows a part of the results.

test system: Plasmodium falciparum; assay: Primary screen in NF54 nanoGlo assay, in single point, at 2uM, 72h; a lower Z score goes with more inhibition; format: functional, Erythrocyte; conditions: timepoint 72 hour

Structure (SMILES)	% Inhibition	Z score
COc1ccc(S(=O)(=O)N2CCC(c3cc(N)on3)CC2)cc1Cl	57%	-3.68
O=C(c1ccccn1)N1CCC2(CC1)NCCc1c2[nH]c2ccccc12	6%	-0.8
O=C(Nc1ccccc1CC(F)(F)F)NC1C2CCC(C2)C1CO (centres undefined)	1%	-0.12
Cc1nn(CC(=O)N[C@@H](C)CO)c(=O)n1-c1ccc2c(c1)OCO2	-3%	0.51
O[C@@H]1C[C@@H](c2nnc3n2CCN(Cc2ccc4[nH]ccc4c2)C3)N(Cc2ccccc2)C1	7%	-0.98
CC(C(=O)Nc1ccc(Cl)cn1)N1CCCC1Cn1cccn1 (centres undefined)	-11%	1.65
O=C(NCc1ncccc1O)[C@@H]1CCCN1C(=O)c1cccs1	-2%	0.38
CCN1CCCN(c2nc(C)cc(C)c2C#N)CC1=O	-9%	1.02
CN(C(=O)[C@H](N)c1ccccc1)C1CCCCC1	4%	-0.8
CCn1cc(CN2C[C@H](C3CC3)[C@@H](N(C)C)C2)cn1	-6%	0.95
CC(=Cc1cccc(C(F)(F)F)c1)CN1CCN2CCOC[C@@H]2C1	11%	-1.4
CC(=O)N1CCN2C(=O)N([C@@H](C)c3ccccc3)C(=O)[C@@H]2C1	0%	-0.03
Cn1cccc(C(=O)NCCn2nc(-c3ccncc3)cc2C2CC2)c1=O	-20%	2.58
O=C(c1cccnc1)N1CC(N(Cc2ccncc2)CC2CC2)C1	-10%	1.98
Cc1nc(Nc2cccc(F)c2)sc1C(=O)Nc1ccc2c(c1)OCCO2	0%	0.04
N#C[C@@H]1COCCN1C(=O)COCC(F)(F)F	-2%	0.29
CCOc1ccc2c(c1)[C@@H](Nc1cc(C)nc(C3CC3)n1)CCO2	6%	-0.74
Clc1ccc(OCC#CCNC[C@H]2CCCO2)cc1	3%	-0.57
O=C1C(NC(=O)N2CCO[C@H]3CCC[C@H]32)CCCN1CC(F)(F)F (some centres undefined)	5%	-0.66
COCCO[C@H]1CN(C2CCN(C(=O)c3ccoc3)CC2)C12CCCCC2	7%	-1.14
CC(C)(C)c1nc2ccccn2c1-c1ccncc1	-5%	0.82

Structure (SMILES)	% Inhibition	Z score
C[C@H](NC(=O)c1n[nH]c2c1CCCC2)c1ccccn1	32%	-3.67
OCCc1ccc(NCc2csc(C(F)(F)F)c2)cn1	-11%	1.44
CC(C)(C)OC[C@@H](O)CN1CCC(c2ccsc2)CC1	5%	-1.04
COc1ccc(-c2nnc(-c3cccnc3NCCN(C)C3CCCCC3)o2)cc1	-9%	0.85
Cc1noc(C)c1NC(=O)NCCOc1ccc(F)cc1F	-2%	0.33
Cc1cnn(C2CCCC2)c1NC(=O)NCCCNc1cccnc1	-14%	1.92
O=C(NC1CCS(=O)(=O)CC1)c1conc1-c1ccccc1	-2%	0.36
O=C(CN1C(=O)CN(c2ccccc2)C1=O)c1ccc2c(c1)CCO2	-7%	1.19
C[C@@]1(c2nc(-c3ccccc3C(F)(F)F)no2)CCCO1	-2%	0.27
COc1nc2c(cc1CNC(=O)c1cc(C)on1)C(=O)N(C1CCCC1)C2	-5%	0.93
COc1ccc(CNC(=O)c2cc3n(n2)C[C@@H](c2ccc4c(c2)OCO4)OC3)cc1	-8%	1.3
CCOc1ccc(S(=O)(=O)Cc2n[nH]c(CC)n2)cc1	6%	-1.06
Cc1ccccc1C(=O)NCC[C@H](O)C(C)(C)C	-6%	0.97
COc1cc(NC(=O)N2CCC[C@@H]2CS(C)(=O)=O)cnc1OC	0%	0.01
CN1CCC=C(CN(C[C@@H]2CCC(=O)N2)C(=O)C2CCCCC2)C1	0%	-0.01
O=C1CN(Cc2ccccc2)C(=O)[C@@H](Cc2c[nH]c3ccccc23)N1	7%	-1.47
NC(=O)N1CC[C@H](NC(=O)c2ccc(Cl)o2)C1	2%	-0.16
COc1ccc(-c2cc3n(n2)CCC(=O)N3Cc2ccc(C(=O)NCCC(C)C)cc2)cc1	6%	-0.71
CC(=O)c1ccc(OC2(C(=O)O)CCN(C3CCCCCC3)CC2)cc1	9%	-1.27
Cc1nc(-c2cccs2)sc1C(=O)N1CCC[C@](C)(CO)C1	-21%	2.37
O=C(CCCCc1ccccc1)N1CCC(O)(CN2CCCC2)CC1	-32%	2.79
